# Source: ChEMBL document CHEMBL1201862, “PubChem BioAssay data set” (2004)
#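 Where inhibition never reached the appropriate level, the endpoint shown equals the highest concentration tested. Otherwise, values were interpolated linearly from a five-concentration, 48-hour dose response in 96-well plates. At the GI50, growth is halved.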 Active and inactive are the calls of the source. No stated cut-off is given here; in the data, active = GI50 up to about 1.1 µM and inactive = higher.
# Test system: NCI-H322M
# Assay: inhibition of tumour cell growth, NCI panel, 48 h
row,Compound,GI50
1,CC(=O)OC1CCC2(C)C(=CCC3C2CCC2(C)C3CC3OC4(CCC(C)CN4)C(C)C32)C1 (configuration not stated),inactive: > 100 µM
2,O/N=C\c1cc(O)c(O)c(/C=N/O)c1,inactive: 39.6 µM
3,C/C(=C\c1ccccc1)C(=O)NCc1ccc(C(=O)NCCc2c[nH]c3ccccc23)cc1,inactive: > 100 µM
4,CC(C)(CO)NC(=O)Nc1c(C(F)(F)F)cc(-c2ccccc2)[nH]c1=O,inactive: > 100 µM
5,CC[P+]1(c2ccccc2)[C@@H](C)CC[C@@H]1C,inactive: > 100 µM
6,COc1ccc([C@@H]2OC(=O)C3C2C(=O)O[C@H]3c2ccc(OC)c(OC)c2)cc1OC (some centres not stated),inactive: > 100 µM
7,CC1=Nc2sc3c(c2C2=NCCN12)CCCC3,inactive: 36.4 µM
8,O=C1OC(c2ccccc2)=N/C1=C/NC(Cc1c[nH]c2ccccc12)C(=O)O (configuration not stated),inactive: > 100 µM
9,CC(=O)C(=NNc1ccc(-n2c(C)nc3ccccc3c2=O)cc1)C(C)=O,inactive: > 100 µM
10,CN(C)CCCN1CCc2c([nH]c3ccccc23)C1c1cccnc1 (configuration not stated),inactive: > 100 µM
11,O=C(Nc1ccc(S(=O)(=O)N[C@@H](C(=O)O)c2ccccc2)cc1)c1ccc(F)cc1,inactive: > 100 µM
12,CCN(CC)CCC(=O)NC1c2ccc(Cl)cc2Oc2c(C)cccc21 (configuration not stated),inactive: 15.8 µM
13,CC(C)[C@]12O[C@H]1[C@@H]1O[C@]13[C@]1(O[C@H]1C[C@H]1C4=C(CC[C@@]13C)C(=O)OC4)[C@@H]2O [TRIPTOLIDE],active: 0.0113 µM
14,CCN(CC)CC(C(=O)Nc1c(C)cccc1C)/C(C)=N\NC(=S)NN (configuration not stated),inactive: > 100 µM
15,CC(C)(C)OC(=O)C1/C(=C/CO)CN1C(=O)OC(C)(C)C (configuration not stated),inactive: > 100 µM
16,O=c1c(-c2ccccc2)c(SCCCN2CCN(c3cccc(Cl)c3)CC2)n(-c2ccccc2)c(=S)n1-c1ccccc1,inactive: > 100 µM
17,CC(=O)C1C(=O)C(=O)N(c2ccccc2)C1=O (configuration not stated),inactive: > 100 µM
18,CC(=O)NC1C(CO)O[C@@H]2OC(C)(C)O[C@H]12 (some centres not stated),inactive: > 100 µM
19,O=C1c2ccccc2C(=O)c2c1ccc1c3ccccc3n(-c3ccccc3)c21,inactive: 27.6 µM
20,OC1(c2ccccc2)C2CC=CC2C1(c1ccccc1)c1ccccc1 (configuration not stated),inactive: 26.4 µM
21,COC1(OC)N=C(N)C2(C#N)C(C)CC(=O)N(N(C)C)C12C#N (configuration not stated),inactive: > 100 µM
22,c1ccc(/N=C2\S/C(=N\C3CCCCC3)N(C3CCCCC3)\C2=N/c2ccccc2)cc1,inactive: > 100 µM

row,Compound,GI50
1,COc1cc(/C=N/c2nncs2)ccc1O,inactive: > 100 µM
2,Cc1n[nH]c(=O)n1/N=C\c1ccccc1,inactive: > 100 µM
3,N#CNCC(COCc1ccccc1)c1ccccc1 (configuration not stated),inactive: > 100 µM
4,O=C1CC2C=CC1C2CO (configuration not stated),inactive: > 100 µM
5,CCOP(=O)(O)C1C(CO)OC(n2ccc(=O)[nH]c2=O)C1O (configuration not stated),inactive: > 100 µM
6,CCCn1c(C23CC4CC(CC(C4)C2)C3)nc2ccc(Cl)cc2c1=O,inactive: 33.1 µM
7,CC(C)C(Cl)CC/C(CBr)=C(\Cl)CCl (configuration not stated),inactive: 16 µM
8,COc1ccc2c(c1)CC1Cc3cc(OC)c(OC)cc3CN1CC2 (configuration not stated),inactive: 38.6 µM
9,CCOC(=O)C[n+]1ccc2c([nH]c3cc(OC)ccc32)c1C,inactive: > 100 µM
10,COc1c(C)c(OC)c(C(=O)CC(C)C)c(OC)c1C,inactive: > 100 µM
11,O=C1/C(=C/c2ccc(Oc3ccccc3)cc2)N=C(c2ccccc2)N1c1ccc(S(=O)(=O)Nc2nccs2)cc1,inactive: 29.4 µM
12,CC(=O)N(CN1C(=O)CCC1C(=O)O)c1ccccc1Cl (configuration not stated),inactive: > 100 µM
13,CCc1nc(N)nc(N)c1-c1ccc([N+](C)(C)C)cc1,inactive: > 100 µM
14,COC(=O)/C(=N/NC(N)=O)C(C(=O)OC)C(=O)C(=O)Nc1ccc(Cl)cc1 (configuration not stated),inactive: > 100 µM
15,CN(C)CCNCCN,inactive: > 100 µM
16,CC[C@]12CCCN3CCc4c(n(c5ccccc45)C(=O)C1)[C@@H]32 [VINBURNINE],inactive: 13.2 µM
17,COC(=O)c1ccccc1CC1Cc2ccc3c(c2C1=O)CCCC3 (configuration not stated),inactive: > 100 µM
18,C=CCNC(=S)NC=C(C(N)=O)C(N)=O,inactive: > 100 µM
19,O=C1C=CC2(C=C1)O[C@H](Cc1ccccc1)[C@@H](Cc1ccccc1)O2,inactive: 12 µM
20,c1ccc2c(c1)ccc1nc(-c3ccc4c(c3)OCO4)c3c(c12)CCCC3,inactive: 81.8 µM
21,O=[N+]([O-])c1ccc(/C(=N/c2ccccc2)SS/C(=N\c2ccccc2)c2ccc([N+](=O)[O-])o2)o1,inactive: 1.75 µM
22,CNS(=O)(=O)c1ccccc1C(=N)c1ccccc1,inactive: > 100 µM

row,Compound,GI50
1,COc1ccc(/C=C2/C[N+](C)(C)C/C(=C/c3ccc(OC)cc3)C2=O)cc1,inactive: > 100 µM
2,ClC(Cl)(Cl)C(N1CCN(c2ccccc2)CC1)N1CCN(c2ccccc2)CC1,inactive: > 100 µM
3,COC(=O)Cc1c(-c2c(CC(=O)OC)c3ccccc3n2C2OC(COC3OC(COC(C)=O)C(OC(C)=O)C(OC(C)=O)C3OC(C)=O)C(O)C(O)C2O)[nH]c2ccccc12 (configuration not stated),inactive: > 100 µM
4,O=C(O)c1ccccc1/C=C1\Cc2ccc3c(c2C1=O)CCCC3,inactive: 42.6 µM
5,Cc1nn(C(=O)Cc2ccccc2)c2c1C(c1ccc(O)cc1O)SC(=N)N2 (configuration not stated),inactive: > 100 µM
6,CC(=O)OC1CCC2(C)C(CCC3C2CCC2(C)C(c4ccc(=O)oc4)C(OC(C)=O)CC32O)C1 (configuration not stated),active: 0.0125 µM
7,CCOC(=O)C1=C(C)N(NC(=O)c2ccccc2)C2(O)CCCC12C(=O)OCC (configuration not stated),inactive: > 100 µM
8,O=c1cc(-c2nc3ccccc3[nH]2)[nH]c2nc(-c3nc4ccccc4[nH]3)cc(-c3ccc(Cl)cc3)c12,inactive: 28.2 µM
9,BrC1=CC=C2NC=CC3=CC=NC1C32 (configuration not stated),inactive: 24.8 µM
10,CCOC(=O)c1nc2cc(C(F)(F)F)ccc2nc1Nc1ccc(C(=O)NC(C(=O)OCC)C(=O)OCC)cc1,inactive: 43.3 µM
11,N#C/C(=C\c1c(Cl)cccc1Cl)c1ccccc1,inactive: 8.09 µM
12,CSC(=O)/C=C1\SS/C(=C\C(=O)SC)S1,inactive: 8.63 µM
13,O=C(O)CCCCn1cnc2c(S)ncnc21,inactive: > 100 µM
14,COc1ccc2c(c1)CCCN1CCc3ccccc3C21 (configuration not stated),inactive: 83.6 µM
15,CC1=NN(c2ccccc2)C(=O)C1/N=N/c1ccc(S(N)(=O)=O)cc1 (configuration not stated),inactive: > 100 µM
16,C=C(CCC/C(C)=C/C=C/[C@H](C)CCCc1ccoc1)C[C@@H]1OC(=O)[C@H](C)[C@@H]1O,inactive: 3.47 µM
17,CCCCOC(=O)CNC(=O)OCCCCC#CC#CCCCCOC(=O)NCC(=O)OCCCC,inactive: > 100 µM
18,NC(=O)C1CCCN1Cc1ccc2c(c1)OCO2 (configuration not stated),inactive: > 100 µM
19,CC(=O)OCOC(=O)CN(CC(=O)OCOC(C)=O)Cc1cc2c(cc1OC(C)=O)Oc1cc(OC(C)=O)c(CN(CC(=O)OCOC(C)=O)CC(=O)OCOC(C)=O)cc1C21OC(=O)c2ccccc21,inactive: 1.8 µM
20,O=C1C(Br)=CC2(C=C1Br)CCNC1=C2C(=O)c2ncccc2C1=O,inactive: 1.49 µM
21,C[C@H]1[C@H](C)CC[C@]2(C(=O)OC3OC(CO)C(O)C(O)C3O)CC[C@]3(C)C(=CC[C@@H]4[C@@]5(C)C[C@H]6OC(=O)c7cc(O)c(O)c(O)c7-c7c(cc(O)c(O)c7O)C(=O)O[C@@H]6C(CO)(CO)[C@@H]5CC[C@]43C)[C@H]12 (some centres not stated),inactive: 37.6 µM
22,CC1CN(c2ccc(Cl)cc2)CC(C)OC(=O)O1 (configuration not stated),inactive: > 100 µM

row,Compound,GI50
1,Cn1cnc([N+](=O)[O-])c1Sc1nncc2[nH]cnc12,inactive: > 100 µM
2,O=S(=O)(CCC[C@H]1[C@@H](CCOCc2ccccc2)C2CCCN1O2)c1ccccc1 (some centres not stated),inactive: > 100 µM
3,Cc1c(C(=O)Nc2ccc(Cl)c(C(F)(F)F)c2)oc2cc(O)ccc2/c1=N\NC(N)=S,inactive: > 100 µM
4,CCCCCCc1cc2cc(C(=O)Nc3ccc(F)cc3)c(=N)oc2cc1O,inactive: 5.11 µM
5,COc1ccc(C2N(c3ccc(F)cc3)C(=O)N3C(c4ccc(OC)cc4)N(c4ccc(F)cc4)C(=O)N23)cc1 (configuration not stated),inactive: > 100 µM
6,COc1ccc(N2C(=O)C3c4[nH]c5ccccc5c4C4CC(C)(C)CC(C)(C)C4C3C2=O)cc1 (configuration not stated),inactive: 18.5 µM
7,CC(C)(C)OC(=O)N1CCc2[nH][nH]c(=O)c2C1,inactive: > 100 µM
8,C=C1C(NC)CCC23CC24CCC2(C)C(C(C)=O)C(O)CC2(C)C4CCC13 (configuration not stated),inactive: > 100 µM
9,COC[C@@H](C[C@H]1O[C@@](O)([C@H](O)[C@@H]2C[C@H](OC)[C@@H](O)CC/C=C(C)/C=C/[C@@H](O[C@@H]3O[C@@H](C)[C@H](OC)[C@@H](O)[C@@H]3O)[C@H](C)/C=C(C)/C=C(C)/C=C(\C)C(=O)O2)[C@H](C)[C@@H](O)[C@H]1C)O[C@H]1C[C@](C)(O)[C@@H](O[C@H]2C[C@@H](OC)[C@H](O)[C@@H](C)O2)C(C)O1 (some centres not stated),inactive: > 100 µM
10,OC(c1ccccc1)(c1cccnc1)C(O)(c1ccccc1)c1cccnc1 (configuration not stated),inactive: > 100 µM
11,CCC12CCCN3CCc4c(n(c5ccccc45)C(O)(C(=O)OC)C1)C32 (configuration not stated),inactive: > 100 µM
12,Cn1c2ccc3cc2c(=S)c2cc(ccc21)OCCOCCOCCOCCOCCOCCO3,inactive: > 10 µM
13,NC1=CN(Cc2ccccc2)C2=N/C(=C\c3ccco3)C(=O)N12,inactive: > 100 µM
14,COc1ccc(C2=C(Cl)C(=O)O/C2=C\c2ccc(OC)c(Br)c2)cc1Cl,inactive: > 100 µM
15,CCOC(=O)/C=C(\C)c1ccc(C)cc1C,inactive: 81.5 µM
16,O=c1[nH]c(=S)[nH]n1C(=S)n1[nH]c(=S)[nH]c1=O,inactive: > 100 µM
17,COc1ccc2c(c1)CCc1cc(OC)ccc1/[N+]([O-])=[N+]\2[O-],inactive: 28.7 µM
18,COc1ccc(/C=C(\C(=O)OCC(C)C)c2ccc(OC)c(OC)c2)cc1OC,inactive: > 100 µM
19,O=c1c2c(sc3ccccc13)NCN(CCc1ccccc1)C2,inactive: 45 µM
20,C=C1C(=O)O[C@@H]2/C=C(/C)[C@@H](OC(C)=O)C[C@@H](O)/C(C)=C\[C@@H](OC(=O)[C@]3(C)O[C@@H]3C)[C@@H]12,inactive: 66.4 µM
21,CC(C)(C)OC(=O)NC1CCCC1C(=O)C1=CCCC1 (configuration not stated),inactive: > 100 µM
